Measured values from PubChem BioAssay AID1745845 (National Center for Advancing Translational Sciences (NCATS), 2022).
Several values for one entry are separate records, joined by “and”; a condition that tells them apart may be missing. Equal entries are not always repeated. About 2,600 (0.72%) of roughly 360,000 compounds were called active. This list was built around the results that the source calls inconclusive (neither active nor inactive); the mix of calls is not that of the screen. The call rests on the fitted dose curve; in most records, active means well fitted inhibition curve with a large enough effect; inconclusive means small, poorly fitted or top-dose-only effect; inactive means no such curve, though single readings can be large or run the other way. Potencies of inconclusive entries are doubtful fits and often do not repeat.

Assay: Primary qHTS for Inhibitors of ATXN expression; further: nearly all actives have a fitted effect of over 55% in size
Settings: HEK-293 ATXN2-luciferase reporter, luminescence, 24 h; series mostly up to 57 µM
Outline: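 qHTS (up to 57 uM final) was run with 24 h compound exposure of reporter cells at 37 °C. Each well was multiplexed: SteadyGlo luminescence measured ATXN2-luciferase expression after a fluorogenic Gly-Phe-AFC viability readout (25 uM final).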
Potency means the concentration at half of the fitted maximal effect; tags describe the fitted curve by direction and shape.

SMILES	Potency
Cc1ccc2oc(=O)c3cnn(CC(=O)N(CCN(C)C)Cc4ccco4)c3c2c1	inconclusive: 37.7 µM [inhibitor, single point]
CCOC(=O)N1CCN(S(=O)(=O)c2ccc(C(=O)NNc3nc4c(C)cc(C)cc4s3)cc2)CC1	inconclusive: 37.7 µM [inhibitor, single point]
Cc1nc2ccccc2cc1C(=O)N/N=C/c1cccc([N+](=O)[O-])c1	inconclusive: 0.752 µM [inhibitor, partial curve, poor fit]
Cc1cc(N2CCN(c3ccccc3)CC2)n2cc(-c3ccccc3)nc2n1	inactive
CCN(CC)c1cc(C)c2cc(NC(=O)c3cccc(OC)c3)ccc2n1	inconclusive: 15.8 µM [inhibitor, partial curve, poor fit]
CCc1ccc(-c2nc(CSCC(=O)N3CCN(c4ncccn4)CC3)c(C)o2)cc1	inconclusive: 22.4 µM [inhibitor, single point]
Cc1ccc(S(=O)(=O)N(CC(O)Cn2c3ccccc3c3ccccc32)c2cccc(C(N)=O)c2)cc1 (configuration not stated)	inconclusive: 39.8 µM [inhibitor, single point]
O=C(c1ccccc1)c1cc(-c2ccccn2)c(N2CCOCC2)s1	inconclusive: 5.01 µM [inhibitor, single point]
Cc1cc(C)cc(NC(=O)Cn2nnc(C(=O)NCc3ccc4c(c3)OCO4)c2N)c1	inconclusive: 22.4 µM [inhibitor, partial curve, poor fit]
O=[N+]([O-])c1ccc(Cl)c2c1C1C=CCC1C(c1ccccn1)N2 (configuration not stated)	inactive
COc1ccc(-c2cc(C(=O)O)n(Cc3ccccc3)n2)cc1	inactive
O=C(NNC(=O)C(c1ccccc1)c1ccccc1)c1ccccn1	inconclusive: 1.5 µM [inhibitor, partial curve]
CN1CCc2c(c3ccccc3n2Cc2ccc(C(=O)NO)cc2)C1	inconclusive: 43.2 µM [inhibitor, single point]
CCc1ccccc1NC(=O)c1ccc([N+](=O)[O-])s1	inconclusive: 13.4 µM [inhibitor, partial curve]
COCCn1c(SCC(=O)Nc2ccc(Cl)cn2)nc2ccccc21	inconclusive: 14.1 µM [inhibitor, partial curve, poor fit]
CC(Cc1ccccn1)NC(=O)c1ccc(OC2CCN(CCc3ccccc3)CC2)cc1 (configuration not stated)	inactive
CC1CCCN(CCCNC(=O)c2ccc3c(c2)N(Cc2ccccc2F)C(=O)c2ccccc2S3(=O)=O)C1 (configuration not stated)	inconclusive: 39.8 µM [inhibitor, single point] and inconclusive: 14.1 µM [inhibitor, partial curve]
Oc1c(CN2CCCCC2)cc(Br)c2cccnc12	active: 3.98 µM
O=S(=O)(c1ccc(SCCOc2ccc(Br)cc2)nc1)N1CCCC1	inactive
O=C(OCc1ccccc1)N1CCOCCOCCN(C(=O)OCc2ccccc2)CCOCCOCC1	inconclusive: 35.5 µM [inhibitor, single point]
NC(=O)C1CCN(C(=O)c2ccc(NS(=O)(=O)c3ccc(Br)s3)cc2)CC1	inactive

SMILES	Potency
Cc1ccc2c(NCc3ccco3)nc(NC(C)C)nc2c1	inconclusive: 22.4 µM [inhibitor, single point]
C=CCn1c(SCc2ccc(Cl)cc2)nc2cc(C(=O)N3CCC(C(N)=O)CC3)ccc2c1=O	inactive
COc1ccccc1C(=O)NNC1=NS(=O)(=O)c2ccccc21	inactive
O=C(CSc1ncnc2sc3c(c12)CCCC3)c1ccccc1	inactive
COc1cc(OC)cc(-c2cc3nc(C)c(CCC(=O)Nc4nc(C)cs4)c(C)n3n2)c1	inconclusive: 3.55 µM [inhibitor, partial curve, poor fit]
O=C(CCl)N1c2ccccc2OCC1c1ccccc1 (configuration not stated)	inactive
COc1ccccc1-c1cc(C(=O)N2CCN(S(=O)(=O)c3ccc(C)cc3)CC2)[nH]n1	inconclusive: 28.2 µM [inhibitor, single point]
Cc1ccccc1Nc1c(-c2ccccn2)nc2c(C)cccn12	inconclusive: 20 µM [inhibitor, partial curve, poor fit]
Cc1cc(NC(=O)CSc2nccn2-c2cccc(C)c2C)no1	inconclusive: 42.3 µM [inhibitor, partial curve, poor fit]
CC(C)N1CCN(c2ccc(OC[C@H]3CO[C@](Cn4cncn4)(c4ccc(Cl)cc4Cl)O3)cc2)CC1	inconclusive: 35.5 µM [inhibitor, single point]
CCOC(=O)[C@H](C)N1[C@H](C)[C@H](c2ccccc2)Oc2ccc(Cl)cc2S1(=O)=O	inactive
Cc1ccc(-n2c(Cc3ccccc3)nnc2SCc2nc(-c3cccs3)no2)cc1	inconclusive: 39.8 µM [inhibitor, single point]
COc1ccc(S(=O)(=O)N(C)c2ccc(C(=O)NCc3ccccn3)cc2)cc1	inactive
COc1ccc(NC(=O)c2nc3ccccc3s2)cc1	inconclusive: 25.1 µM [inhibitor, single point]
COc1ccc(S(=O)(=O)NCc2ccccn2)cc1NC(=O)c1ccc(Cl)cc1	inactive
COc1ccc(N2CCN(C(=O)C3CCN(S(=O)(=O)c4cccs4)CC3)CC2)cc1	inactive
CCOC(=O)c1c(C)[nH]c(C(=O)CSc2nnc(-c3cccs3)n2Cc2ccccc2)c1C	inconclusive: 14.1 µM [inhibitor, partial curve, poor fit]
NC(Cc1ccc(C(F)(F)F)cc1)c1csc(Nc2cnccn2)n1 (configuration not stated)	inconclusive: 25.1 µM [inhibitor, single point]
CCS(=O)(=O)c1ncc(Cl)c(C(=O)Nc2ccc(S(=O)(=O)N(C)c3ccccc3)cc2)n1	active: 20 µM
COc1ccc(OC2CCN(S(=O)(=O)c3ccc(OC)c(OC)c3)CC2)cc1	inconclusive: 20 µM [inhibitor, single point]
CCOC(=O)C1CCN(C(=O)c2ccc3c(c2)NC(=O)/C(=C\c2ccc(C)cc2)S3)CC1	inconclusive: 39.8 µM [inhibitor, single point]
